Assay results reported in PubChem BioAssay AID720647 (Broad Institute, 2013).
Out of some 380,000 compounds screened, about 1,300 (0.34%) were called active. This list was built around the results that the source calls inconclusive (neither active nor inactive); the mix of calls is not that of the screen.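 How the source made its calls: active means drop in luminescence signal, shown as inhibition above about 50% in the replicate tests (limit read from the data, passing the limit was not always enough); inconclusive means probably only some replicates passing the limit; inactive means the rest.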

Test system: Drosophila bursicon receptor LGR2 (rickets)
Assay: inhibitors of bursicon-induced LGR2 CRE-luciferase signal, primary screen, cell-based, HEK293, CRE-luciferase reporter, bursicon stimulation (AID 720647);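 further: agonist challenge used bursicon conditioned medium at about half maximal strength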
Settings: bursicon-stimulated, 4 h, at 9.99 µM, stronger effect = higher value

Row | SMILES | inhibition
1 | COc1ccc(S(=O)(=O)N2CCOCC2)cc1NC(=O)COc1ccc(C)cc1 | inconclusive: 50.3%
2 | COc1ccc(CN2CCCC(C(=O)N3CCCC3)C2)c(OC)c1OC (stereo unspecified) | inconclusive: 5.29%
3 | COc1ccc(NC(=O)COc2cccc3c2OC(C)(C)C3)cc1OC | inconclusive: 52.9%
4 | CC(C)N1C(=O)/C(=C\c2nc3ccccc3c(=O)n2-c2ccccc2)c2ccccc21 | inconclusive: 27.4%
5 | Cc1ccsc1/C=N/NC(=O)c1ccc2c(c1)OCCO2 | inconclusive: 42.9%
6 | O=C(Nc1ccc(Cl)cc1)Nc1cccc(C(=O)O)c1 | active: 92.2%
7 | O=c1[nH]c2ccc(S(=O)(=O)NCCO)cc2[nH]1 | inconclusive: -1.79%
8 | CC(C)(C)c1ccc(Cn2c(=O)cnc3ccccc32)cc1 | active: 59.9%
9 | Nc1ncnc(Sc2ncccn2)c1[N+](=O)[O-] | inconclusive: 47.2%
10 | Cc1cc(NS(=O)(=O)c2ccc(NC(=O)/C=C/c3ccc(C)o3)cc2)nc(C)n1 | inconclusive: 51%
11 | O=C(/C=C/Nc1ccc(Br)cc1F)c1ccco1 | active: 88.7%
12 | C=CCN(C(=O)C1CC(=O)N(C2CCCC2)C1)c1nc(-c2ccc(S(C)(=O)=O)cc2)cs1 (stereo unspecified) | inconclusive: 100%
13 | Cc1ccc(-c2cn3cc(C)ccc3n2)cc1 | active: 102%
14 | Cc1ccc2sc(-c3ccc(NC(=O)/C=C\C(=O)O)cc3)nc2c1 | inconclusive: 45.9%
15 | Cc1ccc2nc(-c3ccc(NC(=O)COC(=O)c4ccc(Br)o4)cc3)sc2c1 | inconclusive: 23%
16 | COc1ccc(NC2=C(C(C)=O)C(c3ccc(OC)cc3)C(C(C)=O)C(C)(O)C2)cc1 (stereo unspecified) | inconclusive: 8.28%
17 | O=C(/C=C/c1cccs1)N1CCc2ccccc21 | inconclusive: 50.8%
18 | O=C(CN1C(=O)c2ccccc2S1(=O)=O)c1ccc(Cl)cc1Cl | active: 103%
19 | Cc1oc(-c2ccc3c(c2)OCCO3)cc1C(=O)O | inconclusive: 43.3%
20 | COc1ccc(NC(=O)c2ccc(-c3ccc(-c4noc(C)n4)cc3C)cc2)cc1N1CCN(C)CC1 | active: 104%
21 | CCCCN1C(=O)c2ccc(C(=O)Nc3ccc(C)c(S(=O)(=O)N(C)C)c3)cc2C1=O | inconclusive: 23.7%

Row | SMILES | inhibition
22 | CCCOc1ccc(-c2cn3ccccc3n2)cc1 | active: 75.2%
23 | Cc1nnc(NC(=O)C2CC(=O)N(c3ccc4c(c3)OCCO4)C2)s1 (stereo unspecified) | inactive: 0.649%
24 | COc1cc2c(Cc3ccccc3)cncc2cc1O | inconclusive: 14.6%
25 | c1nc(NCc2ccc3c(c2)OCO3)c2cc(-c3ccoc3)ccc2n1 | inconclusive: 53%
26 | O=C(NCc1cccs1)C1CCCN1C(=O)Nc1ccc(F)cc1 (stereo unspecified) | inactive: -7.21%
27 | O=C(Cn1ncc(Cl)c(Cl)c1=O)c1ccc2c(c1)OCCO2 | inconclusive: 49.6%
28 | O=C(/C=C/c1ccccc1)CC(O)(c1ccccc1)C(F)(F)C(F)F (stereo unspecified) | inconclusive: 65.4%
29 | C[C@@H]1CN([C@H](C)CO)C(=O)c2cc(C#CCN(C)C)cnc2O[C@@H]1CN(C)C(=O)CN1CCOCC1 | inconclusive: 58.4%
30 | CCN(Cc1ccccc1)S(=O)(=O)c1ccc(C(=O)N(CCCN(C)C)c2nc3cc(OC)ccc3s2)cc1 | inactive: 3.17%
31 | CCOC(=O)CSC1=C(C#N)C(c2ccc(C)s2)CC(=O)N1 (stereo unspecified) | inactive: -12.3%
32 | O=C(OC(c1ccccc1)c1nccc2ccccc12)c1ccccc1 (stereo unspecified) | inconclusive: 52.2%
33 | CN(C)c1ccc(/C=N/Nc2cccc(C(=O)O)c2)cc1 | active: 86.8%
34 | O=C(Cc1ccccn1)N[C@H]1CC[C@@H](CCn2cc(-c3ccccc3)nn2)O[C@@H]1CO | inactive: 12.1%
35 | CN(C)CC(O)c1ccc(C=Cc2ccc(Cl)cc2)cc1 (stereo unspecified) | inconclusive: 85.7%
36 | O=C1C(C=Nc2ccccc2O)=C(O)c2ccccc21 | active: 64.8%
37 | Cc1sc2ncnc(N3CCC(C(=O)N(C)CC(=O)Nc4cccc(F)c4)CC3)c2c1C | inconclusive: 28%
38 | CC(C)NC(=O)C1(C)CCCN1C(=O)c1cc(C#N)cs1 (stereo unspecified) | inconclusive: -21.3%
39 | CC[C@@H](C(=O)[C@@H](C)[C@@H](O)[C@H](C)CCc1ccc(C)c(O)c1C(=O)O)[C@H]1O[C@](CC)([C@H]2CC[C@](O)(CC)[C@H](C)O2)C[C@@H]1C | active: 70.5%
40 | C=CCNc1nc(-c2cc3ccccc3o2)cs1 | inconclusive: 48.9%
41 | O=S(=O)(/C(=C/c1ccc(C(F)(F)F)cc1)c1nc2ccccc2[nH]1)c1ccccc1 | inconclusive: 42.6%
42 | CC(NC(=S)N1CCN(c2ccccc2)CC1)c1ccccc1 (stereo unspecified) | inconclusive: 74.2%

Row | SMILES | inhibition
43 | Cc1c([N+](=O)[O-])cnc(Sc2ccccc2)c1[N+](=O)[O-] | inconclusive: 61.6%
44 | COc1ccc(CN(C(=O)c2cccs2)C(C(=O)NC2CCCCC2)c2ccc3ncccc3c2)cc1 (stereo unspecified) | inconclusive: 55.6%
45 | N#CCCn1cc(/C=N/NC(N)=S)c(-c2ccc(-c3ccccc3)cc2)n1 | inconclusive: 52.9%
46 | O=C(NC(c1ccccc1)c1cc(Cl)c2cccnc2c1O)c1cccnc1 (stereo unspecified) | inconclusive: 52.8%
47 | O=C(Nc1ccccc1)N1C[C@@H]2[C@H](c3ccccc31)[C@@H](CO)N2CC1CCCC1 | inactive: -15.3%
48 | O=C(NCCC1=CCCCC1)C1CC(=O)N(Cc2ccccc2)C1 (stereo unspecified) | inactive: 4.47%
49 | C[C@H](CO)N1C[C@H](C)[C@H](CN(C)Cc2ccncc2)Oc2ncc(C#CCC3CCCCC3)cc2C1=O | inconclusive: -2.08%
50 | Cc1ccc(-c2nnn(CCC(=O)NC3CCCC3)n2)cc1 | inconclusive: -11.5%
51 | C=CCc1c(C)nc2cc(-c3ccc(C)cc3)[nH]n2c1=O | inconclusive: 56.4%
52 | Cc1ccc(OCCC(=O)OCC(=O)NC2CCCCC2)cc1 | inconclusive: 57.9%
53 | Nc1cc(S(=O)(=O)Nc2cc(Cl)ccc2Cl)ccc1N1CCCC1 | inactive: 11.3%
54 | CC(C)NC(=O)N(C)C[C@@H]1Oc2ncc(-c3cccc(F)c3)cc2C(=O)N([C@H](C)CO)C[C@@H]1C | inactive: -12.3%
55 | N#CC(C#N)=NNc1ccc2cn[nH]c2c1 | active: 81.5%
56 | CS(=O)(=O)c1ccc(C(=O)OCc2nnc(-c3ccccc3)o2)cc1[N+](=O)[O-] | inconclusive: 105%
57 | N#C/C(=C\c1ccc(N2CCOCC2)c([N+](=O)[O-])c1)c1nc2ccccc2[nH]1 | inconclusive: 20.9%
58 | Cc1ccc(Cc2cnc(N3C(=N)SC(c4ccccc4)C3=O)s2)cc1 (stereo unspecified) | inconclusive: -21.3%
59 | NC(Cc1ccc(C(F)(F)F)cc1)c1csc(NC(=O)NCCc2ccccc2)n1 (stereo unspecified) | inconclusive: 16.9%
60 | CN1C(=S)N(c2cccnc2)C(=O)/C1=C\c1ccc(C(C)(C)C)cc1 | inconclusive: 55.4%
61 | CN1/C(=C/C=C/c2n(C)c3cc([N+](=O)[O-])c([N+](=O)[O-])cc3[n+]2C)C(C)(C)c2ccccc21 | inconclusive: 59.7%
62 | CCCC(=O)OCC(=O)NC1CCCc2ccccc21 (stereo unspecified) | inconclusive: 6.5%
63 | COC(=O)[C@]12C[C@H](CC(=O)N3CCN(C(=O)C4CC4)CC3)C(=O)N(CCC3=CCCCC3)C1=C[C@H](COCc1ccccc1)O[C@@H]2C | inconclusive: 61.4%

Row | SMILES | inhibition
64 | C=CCn1c(SCC(=O)Nc2ncc(Cc3ccc(C)c(Cl)c3)s2)nnc1-c1ccncc1 | inconclusive: -3.04%
65 | Cc1ccc(S(=O)(=O)Nc2ccc3c(c2)C(=O)N([C@@H](C)CO)C[C@H](C)[C@@H](CN(C)S(=O)(=O)c2ccccc2)OCCCC[C@H](C)O3)cc1 | inactive: 13.4%
66 | CCOC(=O)C1=C(C)Nc2ccccc2N=C1NC(=O)c1ccc(Cl)c(S(=O)(=O)N2CCCC2)c1 | inconclusive: -2.71%
67 | C[C@@H]1CN([C@H](C)CO)S(=O)(=O)c2ccc(C#CC(C)(C)O)cc2O[C@@H]1CN(C)C(=O)CN(C)C | inactive: -19.5%
68 | Cc1cc(C(=O)OCC(=O)Nc2cccc(S(=O)(=O)N(C)C)c2)c2ccccc2n1 | inconclusive: 7.62%
69 | C[C@H](CO)N1C[C@H](C)[C@H](CN(C)C(=O)Nc2ccccc2)OCCCC[C@H](C)Oc2ccc(NC(=O)NC3CCCCC3)cc2C1=O | inconclusive: 65.3%
70 | COc1cc(/C=C2\CCc3c2nc2ccccc2c3C(=O)O)cc(OC)c1OC | inconclusive: 53%
71 | COCC(=O)Nc1ccc2c(c1)C(=O)N(C)[C@H]1CC[C@H](CC(=O)NCc3ccccc3F)O[C@H]1CO2 | inactive: -3.07%
72 | C[C@@H]1CN([C@H](C)CO)C(=O)c2cc(NC(=O)CCCCCC(=O)Nc3ccccc3N)ccc2O[C@H]1CN(C)Cc1ccncc1 | inactive: -8.39%
73 | COc1ccc(N(CC(=O)NCc2cccs2)S(=O)(=O)c2ccc(C(C)=O)cc2)cc1 | inconclusive: 3%
74 | C=CS(=O)(=O)N(Cc1ccccc1Br)[C@H](CO)CC(C)C | inconclusive: 51.2%
75 | CCN(CC)CCNC(=O)C(=O)Nc1ccc2c(c1)N(S(=O)(=O)c1cccs1)CCC2 | inconclusive: 7.41%
76 | COc1ccc2oc(C(=O)NCCc3ccccc3)c(C)c2c1 | inconclusive: 49.3%
77 | N/C(=N\OC(=O)c1ccc(Cl)cc1)c1ccn[nH]1 | inconclusive: 42.8%
78 | O=C(O)/C=C/c1cnn(-c2ccccc2)c1 | active: 58.8%
79 | COc1ccc2cc(C#N)c(Nc3cccc(F)c3)nc2c1 | inconclusive: 57.4%
80 | CC(=O)c1c(N2CCN(Cc3ccccc3)CC2)nc(=S)n(-c2ccccc2)c1C | inconclusive: 65.1%
81 | O=C(C[C@H]1CC[C@H]2[C@@H](COC[C@@H](O)CN2S(=O)(=O)c2ccc(Oc3ccccc3)cc2)O1)NC1CCC1 | inactive: -5.61%
